Measured values from patent publication US20250002599A1 (NOVAROCK BIOTHERAPEUTICS, published 2025).

Columns and labels:
[1] = biological target: T1, human CD137 expressed on the cell surface of HEK293T cells (human, UniProt Q07011 24-255); assay: immunofluorescence imaging binding assay on human CD137-expressing HEK293T cells; one concentration, not given
T1 construct: Stably or transiently transfected HEK293T cells; also on HEK293T and Jurkat T NFκB reporter cells; also called human CD137 (WT); 4-1BB

[2] = biological target: T1, human CD137 expressed on the cell …; assay: flow cytometry on human CD137-expressing HEK293T cells (target as in the panel title and the legend paragraph 226); one concentration, not given

T1 sequence (Q07011 24-255 limits assumed): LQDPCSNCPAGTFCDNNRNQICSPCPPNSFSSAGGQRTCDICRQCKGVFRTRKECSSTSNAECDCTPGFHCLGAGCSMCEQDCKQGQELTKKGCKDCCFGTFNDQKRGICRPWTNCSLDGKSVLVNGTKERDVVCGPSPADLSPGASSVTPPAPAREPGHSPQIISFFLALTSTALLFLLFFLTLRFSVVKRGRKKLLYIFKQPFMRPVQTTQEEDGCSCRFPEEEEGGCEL

Row | Binder | binding result [1] | binding result [2]
1 | 1923Ab10 (other, Asymmetric trispecific as 1923Ab9 but with the 1923Ab4 scFv in VL-VH order; monovalent for CD137; also called PD-L1/TGFβ/CD137 trispecific 1923Ab10) heavy 1: QVQLVQSGAEVKKPGASVKVSCKASGYTFTSYDINWVRQATGQGLEWMGWMNPNSGITGYAQRFQGRVTMTRDTSISTAYMELSSLRSEDTAVYYCARHRWGKGYLDLWGRGTLVTVSSASTKGPSVFPLAPSSKSTSGGTAALGCLVKDYFPEPVTVSWNSGALTSGVHTFPAVLQSSGLYSLSSVVTVPSSSLGTQTYICNVNHKPSNTKVDKKV[gap - human IgG1 Fc with changes]GGGSGGGGSGGGGSSYELTQPPSVSVSPGQTARITCSGDALPKKYAYWYQQKSGQAPVLVIYEDSKRPSGIPERFSGSSSGTMATLTISGAQVEDEADYYCYSTDSSGNRVFGGGTKLTVLGGGGSGGGGSGGGGSQVQLVESGGGVVQPGRSLRLSCAASGFTFSNYGMHWVRQAPGKGLEWVAIIWYDGINKYYADSVKGRFTISRDNSKNTLYLQMNSLKAEDTAVYYCARDQDYDILTGYYKEDYFDFWGQGTLVTVSS heavy 2: QVQLVQSGAEVKKPGASVKVSCKASGYTFTSYDINWVRQATGQGLEWMGWMNPNSGITGYAQRFQGRVTMTRDTSISTAYMELSSLRSEDTAVYYCARHRWGKGYLDLWGRGTLVTVSSASTKGPSVFPLAPSSKSTSGGTAALGCLVKDYFPEPVTVSWNSGALTSGVHTFPAVLQSSGLYSLSSVVTVPSSSLGTQTYICNVNHKPSNTKVDKKVEPKSCDKTHTCPPCPAPEAAGGPSVFLFPPKPKDTLMISRTPEVTCVVVDVSHEDPEVKFNWYVDGVEVHNAKTKPREEQYNSTYRVVSVLTVLHQDWLNGKEYKCKVSNKALPAPIEKTISKAKGQPREPQVCTLPPSRDELTKNQVSLSCAVKGFYPSDIAVEWESNGQPENNYKTTPPVLDSDGSFFLVSKLTVDKSRWQQGNVFSCSVMHEALHNHYTQKSLSLSPGK light: EIVMAQSPATLSLSPGERATLSCRASQSVSSSYLSWFQQKPGQAPRLLIYGASTRATGIPARFGGSGSGTDFTLTISSLQPEDFAVYYCQQDYNLPYTFGQGTKLEIKRTVAAPSVFIFPPSDEQLKSGTASVVCLLNNFYPREAKVQWKVDNALQSGNSQESVTEQDSKDSTYSLSSTLTLSKADYEKHKVYACEVTHQGLSSPVTKSFNRGECGGGGSGGGGSGGGGSTIPPHVQKSVNNDMIVTDNNGAVKFPQLCKFCDVRFSTCDNQKSCMSNCSITSICEKPQEVCVAVWRKNDENITLETVCHDPKLPYHDFILEDAASPKCIMKEKKKPGETFFMCSCSSDECNDNIIFSEEYNTSNPD | binds | 
2 | 1923Ab11 (bispecific antibody, human IgG1, kappa, 1923Ab3 IgG1 L234A L235A scaffold with 1923Ab4 scFv (VL-VH) at the C-terminus of each heavy chain; also called PD-L1/CD137 bispecific 1923Ab11) heavy: QVQLVQSGAEVKKPGASVKVSCKASGYTFTSYDINWVRQATGQGLEWMGWMNPNSGITGYAQRFQGRVTMTRDTSISTAYMELSSLRSEDTAVYYCARHRWGKGYLDLWGRGTLVTVSSASTKGPSVFPLAPSSKSTSGGTAALGCLVKDYFPEPVTVSWNSGALTSGVHTFPAVLQSSGLYSLSSVVTVPSSSLGTQTYICNVNHKPSNTKVDKKV[gap - human IgG1 Fc with changes]GGGSGGGGSGGGGSSYELTQPPSVSVSPGQTARITCSGDALPKKYAYWYQQKSGQAPVLVIYEDSKRPSGIPERFSGSSSGTMATLTISGAQVEDEADYYCYSTDSSGNRVFGGGTKLTVLGGGGSGGGGSGGGGSQVQLVESGGGVVQPGRSLRLSCAASGFTFSNYGMHWVRQAPGKGLEWVAIIWYDGINKYYADSVKGRFTISRDNSKNTLYLQMNSLKAEDTAVYYCARDQDYDILTGYYKEDYFDFWGQGTLVTVSS light: EIVMAQSPATLSLSPGERATLSCRASQSVSSSYLSWFQQKPGQAPRLLIYGASTRATGIPARFGGSGSGTDFTLTISSLQPEDFAVYYCQQDYNLPYTFGQGTKLEIKRTVAAPSVFIFPPSDEQLKSGTASVVCLLNNFYPREAKVQWKVDNALQSGNSQESVTEQDSKDSTYSLSSTLTLSKADYEKHKVYACEVTHQGLSSPVTKSFNRGEC | binds | 
3 | 1923Ab16 (other, Trispecific: 1923Ab4 IgG1 L234A L235A scaffold, 1923Ab3 scFv at the C-terminus of each heavy chain, TGFβRII ECD at the C-terminus of each light chain; also called CD137/TGFβ/PD-L1 trispecific 1923Ab16; CD137/TGFβRII/PD-L1 trispecific) heavy: QVQLVESGGGVVQPGRSLRLSCAASGFTFSNYGMHWVRQAPGKGLEWVAIIWYDGINKYYADSVKGRFTISRDNSKNTLYLQMNSLKAEDTAVYYCARDQDYDILTGYYKEDYFDFWGQGTLVTVSSASTKGPSVFPLAPSSKSTSGGTAALGCLVKDYFPEPVTVSWNSGALTSGVHTFPAVLQSSGLYSLSSVVTVPSSSLGTQTYICNVNHKPSNTKVDKKV[gap - human IgG1 Fc with changes]GGGSGGGGSGGGGSEIVMAQSPATLSLSPGERATLSCRASQSVSSSYLSWFQQKPGQAPRLLIYGASTRATGIPARFGGSGSGTDFTLTISSLQPEDFAVYYCQQDYNLPYTFGQGTKLEIKGGGGSGGGGSGGGGSQVQLVQSGAEVKKPGASVKVSCKASGYTFTSYDINWVRQATGQGLEWMGWMNPNSGITGYAQRFQGRVTMTRDTSISTAYMELSSLRSEDTAVYYCARHRWGKGYLDLWGRGTLVTVSS light: SYELTQPPSVSVSPGQTARITCSGDALPKKYAYWYQQKSGQAPVLVIYEDSKRPSGIPERFSGSSSGTMATLTISGAQVEDEADYYCYSTDSSGNRVFGGGTKLTVLGQPKANPTVTLFPPSSEELQANKATLVCLISDFYPGAVTVAWKADGSPVKAGVETTKPSKQSNNKYAASSYLSLTPEQWKSHRSYSCQVTHEGSTVEKTVAPTECSGGGGSGGGGSGGGGSTIPPHVQKSVNNDMIVTDNNGAVKFPQLCKFCDVRFSTCDNQKSCMSNCSITSICEKPQEVCVAVWRKNDENITLETVCHDPKLPYHDFILEDAASPKCIMKEKKKPGETFFMCSCSSDECNDNIIFSEEYNTSNPD |  | binds
